Some targets named below: PNKP (Homo sapiens) (UniProt Q96T60); POLB (Homo sapiens) (UniProt P06746); POLG2 (Homo sapiens) (UniProt Q9UHN1); POLR2F (Homo sapiens) (UniProt P61218); POLR2H (Homo sapiens) (UniProt P52434); RBM4 (Homo sapiens) (UniProt Q9BWF3); RFC4 (Homo sapiens) (UniProt P35249); RFC5 (Homo sapiens) (UniProt P40937); RPA1 (Homo sapiens) (UniProt P27694); RPA3 (Homo sapiens) (UniProt P35244).

Common to all, as to experiment: pull-down
Holding throughout (conditions): 150 mM NaCl, 50 mM Tris pH 8.0, 0.25% NP-40, 1 mM DTT; 4 C, 2 h; 100 ug nuclear extract; double strand, one strand shown

Another test deals with T1, POLR3A (Homo sapiens) (UniProt O14802).
T1 sequence: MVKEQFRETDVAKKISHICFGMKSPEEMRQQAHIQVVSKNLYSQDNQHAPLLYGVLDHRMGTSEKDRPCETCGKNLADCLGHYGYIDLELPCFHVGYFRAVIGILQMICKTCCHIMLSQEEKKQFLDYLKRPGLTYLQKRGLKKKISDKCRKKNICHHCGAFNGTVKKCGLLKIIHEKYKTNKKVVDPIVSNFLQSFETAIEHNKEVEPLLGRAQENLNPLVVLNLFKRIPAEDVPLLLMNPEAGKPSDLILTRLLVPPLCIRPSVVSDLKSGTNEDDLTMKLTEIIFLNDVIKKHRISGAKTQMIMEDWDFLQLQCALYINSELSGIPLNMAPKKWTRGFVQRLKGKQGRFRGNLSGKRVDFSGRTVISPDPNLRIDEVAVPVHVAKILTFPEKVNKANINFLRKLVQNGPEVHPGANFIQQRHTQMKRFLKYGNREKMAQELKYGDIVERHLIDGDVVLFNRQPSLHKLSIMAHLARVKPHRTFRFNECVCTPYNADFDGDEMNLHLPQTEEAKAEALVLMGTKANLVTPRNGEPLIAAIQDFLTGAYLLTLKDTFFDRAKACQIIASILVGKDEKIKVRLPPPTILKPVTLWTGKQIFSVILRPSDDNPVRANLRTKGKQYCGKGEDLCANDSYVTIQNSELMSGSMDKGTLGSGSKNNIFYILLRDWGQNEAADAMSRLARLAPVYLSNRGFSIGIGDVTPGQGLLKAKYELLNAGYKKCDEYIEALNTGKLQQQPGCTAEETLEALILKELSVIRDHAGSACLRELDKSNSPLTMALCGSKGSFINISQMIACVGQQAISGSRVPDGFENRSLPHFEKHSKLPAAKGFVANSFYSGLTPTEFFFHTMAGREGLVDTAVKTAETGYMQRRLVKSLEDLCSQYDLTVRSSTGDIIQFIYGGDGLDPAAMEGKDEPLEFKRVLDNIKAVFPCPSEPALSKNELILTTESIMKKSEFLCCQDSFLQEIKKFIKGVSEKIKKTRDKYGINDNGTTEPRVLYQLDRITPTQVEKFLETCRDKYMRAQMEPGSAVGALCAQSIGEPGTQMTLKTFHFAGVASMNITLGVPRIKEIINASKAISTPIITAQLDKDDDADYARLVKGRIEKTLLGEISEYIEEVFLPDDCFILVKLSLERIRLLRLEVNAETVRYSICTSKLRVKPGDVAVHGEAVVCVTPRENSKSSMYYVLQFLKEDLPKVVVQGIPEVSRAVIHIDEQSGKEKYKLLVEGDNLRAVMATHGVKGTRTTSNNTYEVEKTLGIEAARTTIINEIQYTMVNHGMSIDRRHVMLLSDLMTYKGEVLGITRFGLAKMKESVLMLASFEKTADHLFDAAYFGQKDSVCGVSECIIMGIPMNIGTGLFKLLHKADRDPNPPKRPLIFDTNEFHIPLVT

The target in a further test is T2, POLR3B (Homo sapiens) (UniProt Q9NW08).
T2 sequence: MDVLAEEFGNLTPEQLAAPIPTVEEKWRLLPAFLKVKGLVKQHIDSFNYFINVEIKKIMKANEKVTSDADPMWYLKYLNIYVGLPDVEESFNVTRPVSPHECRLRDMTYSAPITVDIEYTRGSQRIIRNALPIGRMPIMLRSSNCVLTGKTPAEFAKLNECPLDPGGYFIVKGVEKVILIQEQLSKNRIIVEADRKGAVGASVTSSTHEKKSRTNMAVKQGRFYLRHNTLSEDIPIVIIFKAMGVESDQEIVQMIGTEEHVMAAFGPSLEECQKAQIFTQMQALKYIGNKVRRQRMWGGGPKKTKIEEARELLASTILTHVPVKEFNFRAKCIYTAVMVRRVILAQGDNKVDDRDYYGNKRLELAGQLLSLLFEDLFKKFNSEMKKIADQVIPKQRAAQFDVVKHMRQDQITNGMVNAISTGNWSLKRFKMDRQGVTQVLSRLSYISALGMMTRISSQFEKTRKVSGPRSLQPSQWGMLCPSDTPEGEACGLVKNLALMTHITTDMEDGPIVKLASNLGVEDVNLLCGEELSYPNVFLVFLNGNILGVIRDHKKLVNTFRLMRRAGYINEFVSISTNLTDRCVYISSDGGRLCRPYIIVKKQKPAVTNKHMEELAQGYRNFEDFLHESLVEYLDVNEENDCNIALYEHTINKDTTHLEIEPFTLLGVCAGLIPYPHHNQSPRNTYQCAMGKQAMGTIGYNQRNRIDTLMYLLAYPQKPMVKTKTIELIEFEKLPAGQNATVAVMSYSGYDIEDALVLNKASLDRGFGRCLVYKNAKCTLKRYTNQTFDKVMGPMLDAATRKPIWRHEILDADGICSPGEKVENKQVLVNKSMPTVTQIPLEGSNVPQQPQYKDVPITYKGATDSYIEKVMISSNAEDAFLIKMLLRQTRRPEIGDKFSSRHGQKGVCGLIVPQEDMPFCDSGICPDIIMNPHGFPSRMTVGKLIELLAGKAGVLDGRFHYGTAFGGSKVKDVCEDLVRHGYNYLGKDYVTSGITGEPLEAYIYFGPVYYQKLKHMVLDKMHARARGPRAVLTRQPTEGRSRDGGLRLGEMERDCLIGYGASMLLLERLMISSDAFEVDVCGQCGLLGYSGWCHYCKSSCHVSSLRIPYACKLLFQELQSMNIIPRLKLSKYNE

For a further test, the target named is T3, RBM27 (Homo sapiens) (UniProt Q9P2N5).
T3 sequence: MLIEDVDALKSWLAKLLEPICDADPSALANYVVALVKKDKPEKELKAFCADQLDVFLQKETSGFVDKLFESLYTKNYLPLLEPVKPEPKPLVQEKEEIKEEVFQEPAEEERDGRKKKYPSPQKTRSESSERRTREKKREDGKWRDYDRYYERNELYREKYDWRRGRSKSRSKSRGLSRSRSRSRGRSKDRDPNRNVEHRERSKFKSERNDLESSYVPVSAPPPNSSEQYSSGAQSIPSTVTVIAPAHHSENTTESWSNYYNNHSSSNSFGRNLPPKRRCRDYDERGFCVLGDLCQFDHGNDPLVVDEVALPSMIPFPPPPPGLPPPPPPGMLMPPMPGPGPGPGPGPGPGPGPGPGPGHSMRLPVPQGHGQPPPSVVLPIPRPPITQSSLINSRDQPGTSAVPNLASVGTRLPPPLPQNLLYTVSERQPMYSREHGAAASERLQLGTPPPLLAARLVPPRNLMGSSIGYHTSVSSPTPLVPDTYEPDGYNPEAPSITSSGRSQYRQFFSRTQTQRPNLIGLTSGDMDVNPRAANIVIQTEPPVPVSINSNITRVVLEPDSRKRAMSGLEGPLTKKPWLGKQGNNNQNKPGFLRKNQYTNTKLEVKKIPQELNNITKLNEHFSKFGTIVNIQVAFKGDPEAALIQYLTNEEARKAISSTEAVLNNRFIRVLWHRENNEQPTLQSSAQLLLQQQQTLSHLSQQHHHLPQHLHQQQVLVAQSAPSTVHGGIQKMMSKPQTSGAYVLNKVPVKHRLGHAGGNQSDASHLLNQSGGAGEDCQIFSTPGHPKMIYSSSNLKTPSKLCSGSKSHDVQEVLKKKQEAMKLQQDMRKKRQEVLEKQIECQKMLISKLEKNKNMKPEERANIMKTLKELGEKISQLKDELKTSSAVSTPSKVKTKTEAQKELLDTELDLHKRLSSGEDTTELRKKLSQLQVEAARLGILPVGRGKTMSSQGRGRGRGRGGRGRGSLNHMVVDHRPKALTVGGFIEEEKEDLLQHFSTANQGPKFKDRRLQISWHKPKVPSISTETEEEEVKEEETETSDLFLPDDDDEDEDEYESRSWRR

Another test concerns the target T4, RFC1 (Homo sapiens) (UniProt P35251).
T4 sequence: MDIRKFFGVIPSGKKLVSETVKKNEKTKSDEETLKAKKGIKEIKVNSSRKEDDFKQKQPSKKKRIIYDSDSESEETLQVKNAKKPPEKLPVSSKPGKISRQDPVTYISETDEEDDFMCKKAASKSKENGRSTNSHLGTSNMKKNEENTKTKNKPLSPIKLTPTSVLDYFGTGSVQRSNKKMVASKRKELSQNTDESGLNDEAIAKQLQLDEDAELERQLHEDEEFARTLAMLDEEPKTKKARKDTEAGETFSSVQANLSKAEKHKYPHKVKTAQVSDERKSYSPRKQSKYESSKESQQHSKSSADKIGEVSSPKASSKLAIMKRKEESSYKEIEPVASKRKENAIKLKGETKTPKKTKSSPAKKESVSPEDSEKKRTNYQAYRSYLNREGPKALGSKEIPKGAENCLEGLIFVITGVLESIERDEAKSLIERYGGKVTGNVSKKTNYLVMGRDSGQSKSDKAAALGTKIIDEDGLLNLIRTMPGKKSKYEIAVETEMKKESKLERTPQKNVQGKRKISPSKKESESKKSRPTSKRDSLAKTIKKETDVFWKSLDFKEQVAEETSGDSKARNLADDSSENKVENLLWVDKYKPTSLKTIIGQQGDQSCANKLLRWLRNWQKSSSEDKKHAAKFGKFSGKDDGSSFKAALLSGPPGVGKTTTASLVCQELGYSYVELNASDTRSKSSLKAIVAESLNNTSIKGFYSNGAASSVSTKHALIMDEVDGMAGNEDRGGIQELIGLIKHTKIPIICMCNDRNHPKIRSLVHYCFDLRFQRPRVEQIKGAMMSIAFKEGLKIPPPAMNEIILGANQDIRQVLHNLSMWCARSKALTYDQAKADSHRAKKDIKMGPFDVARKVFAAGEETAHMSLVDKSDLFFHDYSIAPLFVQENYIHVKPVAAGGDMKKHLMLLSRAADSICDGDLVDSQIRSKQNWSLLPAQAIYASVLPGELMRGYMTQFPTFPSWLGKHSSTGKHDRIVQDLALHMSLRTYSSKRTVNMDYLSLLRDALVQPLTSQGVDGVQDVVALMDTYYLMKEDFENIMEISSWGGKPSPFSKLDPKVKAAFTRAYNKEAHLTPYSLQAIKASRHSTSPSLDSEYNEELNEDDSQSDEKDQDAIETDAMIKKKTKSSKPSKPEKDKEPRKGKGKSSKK

The target of a further test is T5, RING1 (Homo sapiens) (UniProt Q06587).
T5 sequence: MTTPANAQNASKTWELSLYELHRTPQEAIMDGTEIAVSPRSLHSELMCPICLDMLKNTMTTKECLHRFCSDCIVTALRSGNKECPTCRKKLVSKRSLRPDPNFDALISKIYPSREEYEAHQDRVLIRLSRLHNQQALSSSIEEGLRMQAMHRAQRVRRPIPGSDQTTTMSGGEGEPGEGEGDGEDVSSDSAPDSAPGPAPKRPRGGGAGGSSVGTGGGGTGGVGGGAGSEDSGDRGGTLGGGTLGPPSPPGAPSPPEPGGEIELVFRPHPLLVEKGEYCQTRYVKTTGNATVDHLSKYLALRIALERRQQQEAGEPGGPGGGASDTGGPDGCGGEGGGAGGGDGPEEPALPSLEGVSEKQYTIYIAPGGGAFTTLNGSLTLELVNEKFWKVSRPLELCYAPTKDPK

This is an account of results in article PMC10407929.

Some of the results follow. Measured with an extract: partners may take part in the binding.

UniProt P40937, sequence (P40937 whole entry): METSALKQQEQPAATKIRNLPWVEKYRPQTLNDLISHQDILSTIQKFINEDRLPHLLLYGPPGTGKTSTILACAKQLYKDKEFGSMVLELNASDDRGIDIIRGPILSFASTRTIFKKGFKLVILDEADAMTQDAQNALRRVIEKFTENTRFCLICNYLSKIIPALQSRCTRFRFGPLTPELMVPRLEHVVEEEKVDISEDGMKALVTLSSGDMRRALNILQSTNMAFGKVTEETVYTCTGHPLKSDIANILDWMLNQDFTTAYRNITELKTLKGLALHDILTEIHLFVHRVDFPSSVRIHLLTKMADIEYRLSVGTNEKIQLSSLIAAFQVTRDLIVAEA
UniProt P35244, sequence (P35244 whole entry): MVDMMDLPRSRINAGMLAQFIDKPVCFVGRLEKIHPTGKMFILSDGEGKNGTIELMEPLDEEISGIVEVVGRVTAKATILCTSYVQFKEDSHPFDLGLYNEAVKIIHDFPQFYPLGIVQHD
UniProt Q9BWF3, sequence (Q9BWF3 whole entry): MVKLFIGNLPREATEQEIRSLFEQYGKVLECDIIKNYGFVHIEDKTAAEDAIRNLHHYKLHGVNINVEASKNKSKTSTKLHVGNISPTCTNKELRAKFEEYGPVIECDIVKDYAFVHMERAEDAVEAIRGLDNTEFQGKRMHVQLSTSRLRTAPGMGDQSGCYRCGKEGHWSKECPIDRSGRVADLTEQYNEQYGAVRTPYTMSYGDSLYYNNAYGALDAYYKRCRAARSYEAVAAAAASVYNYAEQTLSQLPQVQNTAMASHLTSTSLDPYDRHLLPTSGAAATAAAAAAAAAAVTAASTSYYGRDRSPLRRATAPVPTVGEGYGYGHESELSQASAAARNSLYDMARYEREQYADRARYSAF
UniProt P35249, sequence (P35249 whole entry): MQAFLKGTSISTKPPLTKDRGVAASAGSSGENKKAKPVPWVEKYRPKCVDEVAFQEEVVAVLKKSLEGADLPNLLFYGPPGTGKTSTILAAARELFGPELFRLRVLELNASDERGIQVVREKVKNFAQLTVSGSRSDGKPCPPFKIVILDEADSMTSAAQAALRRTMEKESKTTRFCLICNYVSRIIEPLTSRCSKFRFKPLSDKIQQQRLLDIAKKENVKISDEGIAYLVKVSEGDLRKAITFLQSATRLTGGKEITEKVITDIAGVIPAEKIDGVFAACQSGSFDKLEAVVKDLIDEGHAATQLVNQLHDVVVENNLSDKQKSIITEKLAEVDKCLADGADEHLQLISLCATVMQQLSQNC
UniProt Q9UHN1, sequence (Q9UHN1 whole entry): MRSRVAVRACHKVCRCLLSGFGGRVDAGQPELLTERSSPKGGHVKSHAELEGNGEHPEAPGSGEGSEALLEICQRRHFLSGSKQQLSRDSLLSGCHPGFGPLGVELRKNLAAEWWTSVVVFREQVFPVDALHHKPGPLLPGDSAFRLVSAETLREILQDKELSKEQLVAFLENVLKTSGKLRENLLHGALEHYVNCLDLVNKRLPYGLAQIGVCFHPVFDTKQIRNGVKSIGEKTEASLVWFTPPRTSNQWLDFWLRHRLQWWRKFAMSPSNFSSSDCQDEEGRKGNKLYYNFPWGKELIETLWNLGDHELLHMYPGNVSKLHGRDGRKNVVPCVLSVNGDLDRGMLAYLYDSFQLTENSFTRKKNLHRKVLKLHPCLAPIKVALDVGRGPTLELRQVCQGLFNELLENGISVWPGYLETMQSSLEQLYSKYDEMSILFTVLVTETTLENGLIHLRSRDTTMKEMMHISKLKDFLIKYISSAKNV
UniProt P27694, sequence (P27694 whole entry): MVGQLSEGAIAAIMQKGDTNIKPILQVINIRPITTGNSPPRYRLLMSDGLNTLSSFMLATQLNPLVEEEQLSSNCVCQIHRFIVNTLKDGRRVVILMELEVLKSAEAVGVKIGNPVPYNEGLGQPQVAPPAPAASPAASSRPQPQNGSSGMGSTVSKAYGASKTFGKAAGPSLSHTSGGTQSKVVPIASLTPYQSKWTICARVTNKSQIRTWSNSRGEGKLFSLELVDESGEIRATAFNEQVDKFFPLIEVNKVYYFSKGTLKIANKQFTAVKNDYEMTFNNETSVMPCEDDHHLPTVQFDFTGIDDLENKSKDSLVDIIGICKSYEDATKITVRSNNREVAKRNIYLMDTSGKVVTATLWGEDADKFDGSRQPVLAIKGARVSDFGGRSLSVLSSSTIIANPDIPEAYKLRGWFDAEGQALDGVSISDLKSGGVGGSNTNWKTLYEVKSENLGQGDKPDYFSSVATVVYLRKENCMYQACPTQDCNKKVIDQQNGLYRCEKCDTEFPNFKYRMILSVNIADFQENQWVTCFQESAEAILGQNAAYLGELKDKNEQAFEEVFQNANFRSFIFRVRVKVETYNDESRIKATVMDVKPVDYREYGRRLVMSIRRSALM

Regarding “GCCGCCGCCCTCCCACGCGCTGCCGGGCC [BEND3 bait]”, the half-maximal binding came to 323 nM with PNKP (Homo sapiens); 111 nM in the test with POLB (Homo sapiens); 56.3 nM with POLG2 (Homo sapiens); 150 nM with POLR2F (Homo sapiens); 154 nM with POLR2H (Homo sapiens); 141 nM with POLR3A (Homo sapiens). For the same sequence, the half-maximal binding is 123 nM in the test with POLR3B (Homo sapiens); 98.1 nM with RBM27 (Homo sapiens); 384 nM with RBM4 (Homo sapiens); 537 nM with RFC1 (Homo sapiens); 630 nM with RFC4 (Homo sapiens); 658 nM in the test with RFC5 (Homo sapiens). In addition, the half-maximal binding with RING1 (Homo sapiens) is 407 nM; in the test with RPA1 (Homo sapiens) it was 351 nM; in the test with RPA3 (Homo sapiens), 313 nM.
